This is one part of the list.

This assay addresses T1, OsWOX13 (Oryza sativa, UniProt Q5QMM3 1-267).
T1 sequence: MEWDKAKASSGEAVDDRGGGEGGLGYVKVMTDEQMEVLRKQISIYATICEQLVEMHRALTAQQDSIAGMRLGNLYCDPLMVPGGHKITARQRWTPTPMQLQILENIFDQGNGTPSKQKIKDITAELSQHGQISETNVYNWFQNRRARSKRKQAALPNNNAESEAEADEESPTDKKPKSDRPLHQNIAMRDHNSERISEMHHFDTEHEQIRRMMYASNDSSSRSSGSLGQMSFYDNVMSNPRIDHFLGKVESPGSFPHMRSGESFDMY
As to the kind of experiment: protein-binding microarray (RPBM); PBS, 2% BSA, 51.3 ng/ul salmon testes DNA, 50 uM zinc acetate, 200 nM TF, 25 C, 1 h; high values mean tight binding. Conditions: protein: recombinant; tags: N-terminal polyhistidine and DsRed monomer fusion (pET32a); label: CyDye5-dUTP incorporated in the synthesized complementary strand; 3' TTTTT single-stranded linker to array surface; dsDNA, one strand shown. An outline of the steps: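 The binding signal is fluorescence intensity per feature, in arbitrary units, read on an Axon 4000B scanner. Polyhistidine- and DsRed-tagged transcription factors (N-terminal fusions) from E. coli BL21-CodonPlus were purified on Ni–NTA and applied at 200 nM for 1 h at 25 °C to a double-stranded, BSA-blocked custom Agilent array in buffer with 50 µM zinc acetate.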
For “TGTTAGCTGATTAGGATGCCACGTCAGCTAAACCAGCTATCGGAGTCACCTAGTGCAG”, the binding signal is 11100 fluorescence intensity (a.u.).

Take “CTACCATAATTAATCACAAGTGCAGGTTGCTGCTGGGCGTCGGAGTCACCTAGTGCAG”: the binding signal was 12900 fluorescence intensity (a.u.).

Take “AATTAATTTCTAAATACAATCATTATTCACCTCGTAATATCGGAGTCACCTAGTGCAG”: the binding signal is 7210 fluorescence intensity (a.u.).

“ATAAAATTGCCACGTAAGTAATTTTATCAGACTAACCAACCGGAGTCACCTAGTGCAG”: the binding signal is 6280 fluorescence intensity (a.u.).

As to “CACAAACTATGATTATACGTACTACGACTAATGAAAGTTTCGGAGTCACCTAGTGCAG”, the binding signal was 10100 fluorescence intensity (a.u.).

On to “GAGACATTAGCACATGATTAATTGAGTATAAACTATTTTACGGAGTCACCTAGTGCAG”, for which the binding signal was 12900 fluorescence intensity (a.u.).

As for “AAATCTTAATTGAAGTGTAGTGGTAGTTTGTATGTTAGTTCGGAGTCACCTAGTGCAG”, the binding signal was 27700 fluorescence intensity (a.u.).

“TTAACAAAATTAACAAATTTTGTGCCAAAAGAGACAAGGCCGGAGTCACCTAGTGCAG”: the binding signal was 18800 fluorescence intensity (a.u.).

For “AGAATTAAATAGGGGAAAATTGTTATTGATTGAAAAGTGGCGGAGTCACCTAGTGCAG”, the binding signal was 34400 fluorescence intensity (a.u.).

Consider “TTTGTTATAATTTTAATTTACACGTTGCAACGCACGGATACGGAGTCACCTAGTGCAG”, for which the binding signal is 5680 fluorescence intensity (a.u.).

For “GTATAACAGAATTTTGAGTTATCATCCCATTTGTATATTCCGGAGTCACCTAGTGCAG”, the binding signal is 3950 fluorescence intensity (a.u.).

Consider “CAGATTATAATTGTCGACGCTATTTGTGATCCCGTGCATGCGGAGTCACCTAGTGCAG”, for which the binding signal was 23500 fluorescence intensity (a.u.).

With “GTATAATTCATGGTTGATATTTGTTATTGTCTTTGTTTCTCGGAGTCACCTAGTGCAG”, the binding signal is 5480 fluorescence intensity (a.u.).

With “GATCAATTATGATAGAGACCAATTTGGCACCTCTGTGATTCGGAGTCACCTAGTGCAG”, the binding signal is 24100 fluorescence intensity (a.u.).

Consider “CAATTAATTATACATTAATACCACCTTGTTTTACGTAAATCGGAGTCACCTAGTGCAG”, for which the binding signal was 27400 fluorescence intensity (a.u.).

With “GTGCAATAATTGCAGGTTACAAGACTTGTTAAACATACAACGGAGTCACCTAGTGCAG”, the binding signal was 20300 fluorescence intensity (a.u.).

Take “GATCAATCATCCTTGTTCACAAGGCTGCCTGACATGGATGCGGAGTCACCTAGTGCAG”: the binding signal was 15500 fluorescence intensity (a.u.).

Consider “GAGAACTAATTAGATAACTAACCCAGTTTCATTGTATTCGCGGAGTCACCTAGTGCAG”, for which the binding signal is 32800 fluorescence intensity (a.u.).

Consider “CCTTAATAAATCACTGATTTCATTTTAGGTTTCTCTTTACCGGAGTCACCTAGTGCAG”, for which the binding signal is 22400 fluorescence intensity (a.u.).

“CTAATCTAATCATCGGATTAGGAAATAAGTAAGCAAACAACGGAGTCACCTAGTGCAG”: the binding signal is 6880 fluorescence intensity (a.u.).

With “GATTTGATCAAACGTGAAAATTGTATTGTAATACACATGCCGGAGTCACCTAGTGCAG”, the binding signal is 3890 fluorescence intensity (a.u.).

Turning to “TTCTAACAGAAATATTGATTAGGATTAACCATGTGACACACGGAGTCACCTAGTGCAG”, the binding signal is 30300 fluorescence intensity (a.u.).

“ATAATAGCTAGATTAGATAGCAATCTGGTTTGCAGGTAGCCGGAGTCACCTAGTGCAG”: the binding signal is 8920 fluorescence intensity (a.u.).

As for “CGCGGGAATCAATCAATCGCCGTTCGCGTCGCGCCACGAGCGGAGTCACCTAGTGCAG”, the binding signal was 10400 fluorescence intensity (a.u.).

For “AACTGCAAATTAGTAAAAGGCCAAGTCGAGACCCAGATCGCGGAGTCACCTAGTGCAG”, the binding signal is 3900 fluorescence intensity (a.u.).

In the case of “ATAAGTTAATTTAAATAAATGGAGTAGAATATTATGATAGCGGAGTCACCTAGTGCAG”, the binding signal is 26300 fluorescence intensity (a.u.).

Consider “CTTGACACAAACTCCCACGAGCACTCCACTTACTCTCCGCCGGAGTCACCTAGTGCAG”, for which the binding signal was 4370 fluorescence intensity (a.u.).

“AATATAATCATGTGAGATCTTGTTATAAAGATTTAATTGTCGGAGTCACCTAGTGCAG”: the binding signal was 3670 fluorescence intensity (a.u.).

“CAATTTGCATAAATTGATGAGCCACACCTTTTGAGTGGACCGGAGTCACCTAGTGCAG”: the binding signal was 23200 fluorescence intensity (a.u.).

Regarding “CAAAATTTATTAAATATTAGTTTTAATGAATCTAATTTTACGGAGTCACCTAGTGCAG”, the binding signal was 3210 fluorescence intensity (a.u.).

As to “GAGGAAATTGTAGTTTGGAATTGAACAAAAGAACATACCCCGGAGTCACCTAGTGCAG”, the binding signal was 4350 fluorescence intensity (a.u.).

“ATAATTTATATTCAATTAATCATGCGTTAATAGTTTATCTCGGAGTCACCTAGTGCAG”: the binding signal was 34600 fluorescence intensity (a.u.).

For “GCGGCGGTGGGGATGGGGATAGGGCGGCGGCGGCGGATGGCGGAGTCACCTAGTGCAG”, the binding signal is 5760 fluorescence intensity (a.u.).

Consider “GTATCAAGTGCCAATTTGTCAAATTTGAACGCAGCTAGAGCGGAGTCACCTAGTGCAG”, for which the binding signal was 3580 fluorescence intensity (a.u.).

With “CTAAATTTTCAATTATATGTCTAGAAGATTTGATCCAATGCGGAGTCACCTAGTGCAG”, the binding signal is 29300 fluorescence intensity (a.u.).

With “AACTCATGATTACGTTTAAAATGGGACGTAGTAGTATTCTCGGAGTCACCTAGTGCAG”, the binding signal is 9900 fluorescence intensity (a.u.).

In the case of “GTGCAGTGATTTTACCTTTAAACTCTTTCTGCCCACTTCCCGGAGTCACCTAGTGCAG”, the binding signal was 3920 fluorescence intensity (a.u.).

Take “TGTTAACTTGATGATATAGTACTTATACTCCGAAGTCTATCGGAGTCACCTAGTGCAG”: the binding signal was 5410 fluorescence intensity (a.u.).

“CAGGGAAATTAAATTAACTAGCTCGAAGAAATTCAGGGAGCGGAGTCACCTAGTGCAG”: the binding signal is 17800 fluorescence intensity (a.u.).

As to “GCCTAATTAATTCGTCATTAGTACATGTGGGTTACTGTAGCGGAGTCACCTAGTGCAG”, the binding signal is 37400 fluorescence intensity (a.u.).

Turning to “CCTGCCCATCACTTGTGGTGATAGGCTGTCAGGCTGATGGCGGAGTCACCTAGTGCAG”, the binding signal is 6050 fluorescence intensity (a.u.).

Regarding “CTGAAATTTCAAGTTATTTAATCTGACATGCATGGTTAAGCGGAGTCACCTAGTGCAG”, the binding signal was 9870 fluorescence intensity (a.u.).

The values above are taken from publication PMC7819943, “Rice protein-binding microarrays: a tool to detect cis-acting elements near promoter regions in rice”.
